Laboratory results reported in PubChem BioAssay (NCATS).
The shares of active, inactive and inconclusive entries below differ from those in the screen. For part of these data: Where the call is inconclusive, the potency comes from a doubtful curve fit. Calls of active or inactive are those of the source. The call rests on the fitted dose curve; in most records, active means well fitted curve in the direction sought with a large enough effect; inconclusive means small, poorly fitted or top-dose-only effect, or another doubt; inactive means no such curve, though single readings can be large; an effect the other way counts as inactive or inconclusive.

Assays:
[1] = Primary qHTS for inhibitors of nuclear receptor binding SET domain protein 2 (NSD2) in an isogenic RCH-ACV NSD2 p.E1099K mutant (9B) (AID 1645876); further: nearly all actives have a fitted effect of over 70% in size; further: potency means the concentration at half of the fitted maximal effect
CRL-7250 = normal cell line; assay: Cytotoxic Profiling of Annotated Libraries Using Quantitative High-Throughput Screening (AID 1296008); conditions: Five cell lines viability, CellTiter-Glo ATP luminescence, 48-72 h; max response: active compounds read low; further: nearly all actives have a fitted effect of over 60% in size; further: potency means the concentration at half of the fitted maximal effect
Summary of the method: (§1)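 Compounds were pin-transferred onto cells and incubated 48 or 72 hr at 37 degree Celsius, 95% humidity. CellTiter-Glo was added, plates sat 10 min at room temperature, then ATP-coupled luminescence was imaged as the viability read-out.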

HEK293 = assay: as above; conditions: Five cell lines viability, CellTiter-Glo ATP luminescence, 48-72 h; max response: active compounds read low
Summary of the method: as §1

CAOV3 = assay: Primary qHTS to identify gynecologic anti-cancer compounds using libraries of approved drugs and bioactive compounds (AID 1345084); conditions: Gynecologic cancer cell panel viability, ATPlite luminescence, 48 h; series mostly up to 57.5 µM; further: nearly all actives have a fitted effect of over 55% in size; further: potency means the concentration at half of the fitted maximal effect; on activity change, negative = cytotoxicity: on the % scale 0 is the no-effect control and ±100 the full control effect
Summary of the method: (§2)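 Cytotoxicity screen measuring ATP content by luciferase luminescence. Each compound is applied at five concentrations for 48 h at 37 C with 5% CO2.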

CASKI = assay: as above; conditions: Gynecologic cancer cell panel viability, ATPlite luminescence, 48 h; activity change, negative = cytotoxicity: at 57.5 µM (top of the series)
Summary of the method: as §2

SKOV3 = assay: as above; conditions: Gynecologic cancer cell panel viability, ATPlite luminescence, 48 h; series mostly up to 57.5 µM
Summary of the method: as §2

[2] = P-glycoprotein substrates identified in KB-8-5-11 adenocarcinoma cell line, qHTS therapeutic library screen (AID 1346987); further: potency means the concentration at half of the fitted maximal effect; nearly all actives have a fitted effect of over 65% in size
Summary of the method: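 In this qHTS, P-gp-rich KB-8-5-11 cells received library compounds across a concentration range. Viability was quantified by luminescence after 72 h at 37 degree C.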

[3] = system: Zika virus NS2B-NS3 protease (unlinked complex); assay: Primary screen GU Rhodamine qHTS for Zika virus inhibitors: Unlinked NS2B-NS3 protease assay (AID 1347159); further: nearly all actives have a fitted effect of over 60% in size; further: potency means the concentration at half of the fitted maximal effect
Summary of the method: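 Buffer 10 mM Tris-HCl pH 8.0, 0.01% Tween 20. Unlinked protease 25 nM; compound preincubation 15 min, RT, protected from light. Substrate Rhod110, 1.5 microM; ~15% conversion in 15 min.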

[4] = Primary qHTS for inhibitors of nuclear receptor binding SET domain protein 2 (NSD2) in an RCH-ACV wild type WT cells (2C) (AID 1645877); conditions: activity change, negative = cell killing: at 44.9 µM (top of the series); further: nearly all actives have a fitted effect of over 70% in size; further: potency means the concentration at half of the fitted maximal effect
C33A = assay: Primary qHTS to identify gynecologic anti-cancer compounds using libraries of approved drugs and bioactive compounds (AID 1345084); conditions: Gynecologic cancer cell panel viability, ATPlite luminescence, 48 h; series mostly up to 57.5 µM; further: nearly all actives have a fitted effect of over 55% in size; further: potency means the concentration at half of the fitted maximal effect; on activity change, negative = cytotoxicity: on the % scale 0 is the no-effect control and ±100 the full control effect
Summary of the method: as §2

JEG-3 = assay: as above; conditions: Gynecologic cancer cell panel viability, ATPlite luminescence, 48 h; series mostly up to 57.5 µM
Summary of the method: as §2

Tov-21-G = assay: as above; conditions: Gynecologic cancer cell panel viability, ATPlite luminescence, 48 h; activity change, negative = cytotoxicity: at 57.5 µM (top of the series)
Summary of the method: as §2

Es-2 = assay: as above; conditions: Gynecologic cancer cell panel viability, ATPlite luminescence, 48 h; series mostly up to 57.5 µM
Summary of the method: as §2

[5] = Primary fluorescence-based thiol-reactive (MSTI) qHTS assay for identification of artifact compounds. (AID 1845221);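 further: potency means the concentration at half of the fitted maximal effect; thiol-reactive compounds lower the probe fluorescence signal; nearly all actives have a fitted effect of over 65% in size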
Summary of the method: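 Curve-fitted percent inhibition (4-parameter Hill) derived from fluorescence, Ex 525/Em 598 nm, scaled with Acetyl-MSTI and MSTI; 1 h incubation at room temperature.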

HeLa = assay: Primary qHTS to identify gynecologic anti-cancer compounds using libraries of approved drugs and bioactive compounds (AID 1345084); conditions: Gynecologic cancer cell panel viability, ATPlite luminescence, 48 h; series mostly up to 57.5 µM; further: nearly all actives have a fitted effect of over 55% in size; further: potency means the concentration at half of the fitted maximal effect; on activity change, negative = cytotoxicity: on the % scale 0 is the no-effect control and ±100 the full control effect
Summary of the method: as §2

Hek293T = assay: as above; conditions: Gynecologic cancer cell panel viability, ATPlite luminescence, 48 h, control line for the selectivity index; series mostly up to 57.5 µM
Summary of the method: as §2

PA-1 = assay: as above; conditions: Gynecologic cancer cell panel viability, ATPlite luminescence, 48 h; series mostly up to 57.5 µM
Summary of the method: as §2

[6] = Primary qHTS for small molecule stabilizers of the endoplasmic reticulum resident proteome: Secreted ER Calcium Modulated Protein (SERCaMP) assay (AID 1508630); conditions: SH-SY5Y GLuc-SERCaMP (Gaussia luciferase released on ER calcium loss) secretion, thapsigargin, luminescence; activity change, negative = inhibition: at 38.4 µM (top of the series); further: potency means the concentration at half of the fitted maximal effect
Summary of the method: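 The SH-SY5Y reporter protocol was run at 3 concentrations up to 38.3 uM (primary) or 11 concentrations (follow-up): 16 h compound, 100 nM thapsigargin for 4 h, then extracellular luciferase luminescence.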

OV90 = assay: Primary qHTS to identify gynecologic anti-cancer compounds using libraries of approved drugs and bioactive compounds (AID 1345084); conditions: Gynecologic cancer cell panel viability, ATPlite luminescence, 48 h; series mostly up to 57.5 µM; further: nearly all actives have a fitted effect of over 55% in size; further: potency means the concentration at half of the fitted maximal effect; on activity change, negative = cytotoxicity: on the % scale 0 is the no-effect control and ±100 the full control effect
Summary of the method: as §2

WaGa = assay: qHTS assay to identify novel small-molecules to repurpose for Merkel cell carcinoma treatment (AID 1296009); conditions: MCC and control cell lines, CellTiter-Glo viability, 72 h; series mostly up to 46 µM; further: on the % scale 0 is the no-effect control and ±100 the full control effect; nearly all actives have a fitted effect of over 60% in size
Summary of the method: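 Luminescence from CellTiter-Glo, read 10 min after addition at room temperature, reported viability following a 72 hr, 37 degree celsius treatment with NPC or MIPE compounds in titration; values normalized to plate controls.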
Tags describe the fitted curve by direction and shape.

C[C@H]1CC[C@@]2(OC1)O[C@H]1CC3C4CC[C@H]5C[C@@H](O)CC[C@]5(C)C4=CC(=O)[C@]3(C)[C@H]1[C@@H]2C (some centres undefined)
inactive: Potency [1] | outcome (CRL-7250) | Potency (CASKI) | Potency (SKOV3)
inconclusive: Potency (HEK293) 14.2 µM [inhibitor, single point] | Potency (CAOV3) 0.0708 µM [rising, single point]

Cc1ccc(S(=O)(=O)n2ccc(-c3c(-c4ccc(Cl)cc4)noc3C)n2)cc1
active: Potency (HEK293) 4.11 µM | Potency (C33A) 8.91 µM
inactive: Potency [3]
inconclusive: Potency [2] 11.6 µM [inhibitor, partial curve] | Potency [1] 20.5 µM [inhibitor, partial curve, poor fit] | Potency [4] 14.5 µM [inhibitor, partial curve, poor fit] | Potency (CRL-7250) 25.9 µM [inhibitor, single point] | Potency (JEG-3) 1.41 µM [cytotoxic, partial curve, poor fit] | Potency (SKOV3) 8.91 µM [cytotoxic, single point] | Potency (Tov-21-G) 7.08 µM [cytotoxic, single point]

CC(C)c1c(O)ccc2c1CC[C@H]1C(C)(C)CCC[C@]21C
inconclusive: Potency [1] 29 µM [inhibitor, single point] | Potency [4] 25.8 µM [inhibitor, single point] | Potency (HEK293) 25.9 µM [inhibitor, single point]
inactive: outcome (CRL-7250) | Potency (C33A) | Potency (CAOV3)
active: Potency [3] 14.1 µM

NC(N)=N/N=C/c1ccccc1Cl
inactive: Potency (CAOV3) | Potency (CASKI) | Potency (Es-2)
inconclusive: Potency [2] 11.6 µM [inhibitor, partial curve, poor fit] | Potency [3] 100 µM [inhibitor, single point] | Potency [1] 25.8 µM [inhibitor, partial curve] | Potency [4] 32.5 µM [inhibitor, single point] | Potency (CRL-7250) 23.1 µM [inhibitor, partial curve, poor fit] | Potency (HEK293) 29.1 µM [inhibitor, single point] | Potency (SKOV3) 6.31 µM [rising, single point]

CC1(C)CC[C@]2(C(=O)O)CC[C@]3(C)C(=CCC4[C@@]5(C)C[C@@H](O)[C@H](O)C(CO)(CO)C5CC[C@]43C)C2[C@@H]1O (some centres undefined)
active: Potency [2] 7.96 µM | Potency [1] 8.93 µM | Potency (CRL-7250) 7.96 µM
inconclusive: Potency [5] 2.6 µM [inhibitor, partial curve] | Potency (HEK293) 14.2 µM [inhibitor, single point] | Potency (C33A) 11.2 µM [cytotoxic, single point] | Potency (Es-2) 17.8 µM [cytotoxic, single point] | Potency (HeLa) 17.8 µM [cytotoxic, single point] | Potency (Hek293T) 15.8 µM [cytotoxic, single point] | Potency (JEG-3) 14.1 µM [rising, single point] | Potency (PA-1) 14.1 µM [cytotoxic, single point] | Potency (SKOV3) 15.8 µM [cytotoxic, single point] | Potency (Tov-21-G) 11.2 µM [cytotoxic, single point]

Cn1cc(S(C)=O)c(=O)c2ccc(F)cc21 (centres undefined)
inconclusive: Potency [6] 2.51 µM [inhibitor, full curve, poor fit] | Potency (OV90) 39.8 µM [cytotoxic, single point]
inactive: Potency [1] | max response (CRL-7250) -2.16% | max response (HEK293) -2.1% | Potency (C33A)

CCOc1cc(OCC)c(C(=O)CCC(=O)O)cc1OCC
inconclusive: Potency [6] 22.4 µM [inhibitor, partial curve, poor fit] | Potency (CRL-7250) 3.76 µM [inhibitor, single point]
inactive: Potency [1] | Potency [4] | max response (HEK293) -0.0497% | Potency (WaGa) | Potency (PA-1)

Cc1nnc(-c2ccc3occ(-c4ccc(S(C)=O)cc4)c3c2)o1 (centres undefined)
inconclusive: Potency [2] 29.1 µM [inhibitor, single point] | Potency [1] 25.8 µM [inhibitor, single point] | Potency [4] 20.5 µM [inhibitor, single point] | Potency (C33A) 39.8 µM [rising, partial curve, poor fit] | Potency (CAOV3) 8.91 µM [rising, partial curve, poor fit] | Potency (Es-2) 31.6 µM [rising, single point] | Potency (OV90) 22.4 µM [rising, partial curve, poor fit] | Potency (PA-1) 22.4 µM [rising, partial curve, poor fit]
inactive: outcome (CRL-7250) | max response (HEK293) -3.27%
